# Laboratory results: the supplement of paper PMC8728848
# Some of the results follow.
# Assays:
# Test in all cases: glycan array binding signal (z-score within array); higher = stronger binding
# Details in all cases: glycan notation: IUPAC condensed, linker removed
# [1] = molecular target: Fuc(a1-2)[GalNAc(a1-3)]Gal(b1-4)GlcNAc(b1-2)Man(a1-3)[Fuc(a1-2)[GalNAc(a1-3)]Gal(b1-4)GlcNAc(b1-2)Man(a1-6)]Man(b1-4)GlcNAc(b1-4)[Fuc(a1-6)]GlcNAc
# Outline: (§1)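 Negative Z-scores can be read as non-binding. The Z-score is calculated within each array and then averaged across arrays of one protein sequence at different concentrations or buffers and across linkers. Arrays, 3228 in all, were curated from the Consortium for Functional Glycomics database and kept only where the protein sequence was available.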
# [2] = molecular target: Fuc(a1-2)[GalNAc(a1-3)]Gal(b1-4)GlcNAc(b1-3)Gal(b1-4)GlcNAc
# Outline: as §1
# [3] = molecular target: Fuc(a1-2)[GalNAc(a1-3)]Gal(b1-4)GlcNAc(b1-3)Gal(b1-4)GlcNAc(b1-3)Gal(b1-4)GlcNAc
# Outline: as §1
# [4] = molecular target: Fuc(a1-2)[GalNAc(a1-3)]Gal(b1-4)GlcNAc(b1-3)GalNAc
# Outline: as §1
# [5] = molecular target: Fuc(a1-2)[GalNAc(a1-3)]Gal(b1-4)GlcNAc(b1-3)[Fuc(a1-2)[GalNAc(a1-3)]Gal(b1-4)GlcNAc(b1-6)]GalNAc
# Outline: as §1
# [6] = molecular target: Fuc(a1-2)[GalNAc(a1-3)]Gal(b1-4)GlcNAc(b1-6)GalNAc
# Outline: as §1
# [7] = molecular target: Fuc(a1-2)[GalNAc(a1-3)]Gal(b1-4)[Fuc(a1-3)]GlcNAc
# Outline: as §1
# [8] = molecular target: Fuc(a1-2)[GalNAc(a1-3)]Gal(b1-4)[Fuc(a1-3)]GlcNAc(b1-3)GalNAc
# Outline: as §1
# [9] = molecular target: Fuc(a1-2)[GalNAc(a1-4)]Gal(b1-4)GlcNAc
# Outline: as §1
# [10] = molecular target: Fuc(a1-2)[GalNAc(b1-3)]Gal
# Outline: as §1
# Fuc(a1-3)GlcNAc = molecular target: Fuc(a1-3)GlcNAc
# Outline: as §1
# [11] = molecular target: Fuc(a1-3)[Gal(b1-4)]Glc6S
# Outline: as §1
# [12] = molecular target: Fuc(a1-3)[Gal(b1-4)]GlcNAc
# Outline: as §1
# [13] = molecular target: Fuc(a1-3)[Gal(b1-4)]GlcNAc(b1-2)Man
# Outline: as §1
# [14] = molecular target: Fuc(a1-3)[Gal(b1-4)]GlcNAc(b1-2)Man(a1-3)[Fuc(a1-3)[Gal(b1-4)]GlcNAc(b1-2)Man(a1-6)]Man(b1-4)GlcNAc(b1-4)GlcNAc
# Outline: as §1
# [15] = molecular target: Fuc(a1-3)[Gal(b1-4)]GlcNAc(b1-2)Man(a1-3)[Fuc(a1-3)[Gal(b1-4)]GlcNAc(b1-2)Man(a1-6)]Man(b1-4)GlcNAc(b1-4)[Fuc(a1-6)]GlcNAc
# Outline: as §1
# [16] = molecular target: Fuc(a1-3)[Gal(b1-4)]GlcNAc(b1-3)Gal(b1-3)[Fuc(a1-4)]GlcNAc
# Outline: as §1
# [17] = molecular target: Fuc(a1-3)[Gal(b1-4)]GlcNAc(b1-3)Gal(b1-4)[Fuc(a1-3)]GlcNAc
# Outline: as §1
# [18] = molecular target: Fuc(a1-3)[Gal(b1-4)]GlcNAc(b1-3)Gal(b1-4)[Fuc(a1-3)]GlcNAc(b1-3)Gal(b1-4)[Fuc(a1-3)]GlcNAc
# Outline: as §1
# [19] = molecular target: Fuc(a1-3)[Gal(b1-4)]GlcNAc(b1-3)GalNAc
# Outline: as §1
# [20] = molecular target: Fuc(a1-3)[Gal(b1-4)]GlcNAc(b1-4)Gal(b1-4)[Fuc(a1-3)]GlcNAc
# Outline: as §1
# [21] = molecular target: Fuc(a1-3)[Gal(b1-4)]GlcNAc(b1-4)Gal(b1-4)[Fuc(a1-3)]GlcNAc(b1-4)Gal(b1-4)[Fuc(a1-3)]GlcNAc
# Outline: as §1
# [22] = molecular target: Fuc(a1-3)[Gal(b1-4)]GlcNAc(b1-6)GalNAc
# Outline: as §1
# [23] = molecular target: Fuc(a1-3)[Gal(b1-4)]GlcNAc(b1-6)[Gal(b1-3)GlcNAc(b1-3)]Gal(b1-4)Glc
# Outline: as §1
# [24] = molecular target: Fuc(a1-3)[Gal(b1-4)]GlcNAc(b1-6)[Neu5Ac(a2-3)Gal(b1-3)]GalNAc
# Outline: as §1
# [25] = molecular target: Fuc(a1-3)[Gal(b1-4)]GlcNAc6S
# Outline: as §1
# [26] = molecular target: Fuc(a1-3)[Gal3S(b1-4)]Glc
# Outline: as §1
# [27] = molecular target: Fuc(a1-3)[Gal3S(b1-4)]Glc6S
# Outline: as §1
# [28] = molecular target: Fuc(a1-3)[Gal3S(b1-4)]GlcNAc
# Outline: as §1
# [29] = molecular target: Fuc(a1-3)[Gal3S(b1-4)]GlcNAc6S
# Outline: as §1
# [30] = molecular target: Fuc(a1-3)[GalNAc(b1-4)]Gal(b1-4)GlcNAc
# Outline: as §1
# [31] = molecular target: Fuc(a1-3)[GalNAc(b1-4)]GlcNAc
# Outline: as §1
# [32] = molecular target: Fuc(a1-3)[GalNAc(b1-4)]GlcNAc6S
# Outline: as §1
# Fuc(a1-4)GlcNAc = molecular target: Fuc(a1-4)GlcNAc
# Outline: as §1
# Fuc(b1-3)GlcNAc = molecular target: Fuc(b1-3)GlcNAc
# Outline: as §1
# Gal(a1-2)Gal = molecular target: Gal(a1-2)Gal
# Outline: as §1
# Gal(a1-3)Gal = molecular target: Gal(a1-3)Gal
# Outline: as §1
# Gal(a1-3)Gal(b1-3)Glc = molecular target: Gal(a1-3)Gal(b1-3)Glc
# Outline: as §1
# Gal(a1-3)Gal(b1-3)GlcNAc = molecular target: Gal(a1-3)Gal(b1-3)GlcNAc
# Outline: as §1
# [33] = molecular target: Gal(a1-3)Gal(b1-3)GlcNAc(b1-2)Man
# Outline: as §1
# [34] = molecular target: Gal(a1-3)Gal(b1-3)GlcNAc(b1-2)Man(a1-3)[Gal(a1-3)Gal(b1-3)GlcNAc(b1-2)Man(a1-6)]Man(b1-4)GlcNAc(b1-4)GlcNAc
# Outline: as §1
# [35] = molecular target: Gal(a1-3)Gal(b1-3)GlcNAc(b1-3)GalNAc
# Outline: as §1
# [36] = molecular target: Gal(a1-3)Gal(b1-3)GlcNAc(b1-6)GalNAc
# Outline: as §1
# [37] = molecular target: Gal(a1-3)Gal(b1-3)[Fuc(a1-4)]GlcNAc(b1-2)Man(a1-3)[Gal(a1-3)Gal(b1-3)[Fuc(a1-4)]GlcNAc(b1-2)Man(a1-6)]Man(b1-4)GlcNAc(b1-4)GlcNAc
# Outline: as §1
# Gal(a1-3)Gal(b1-4)Glc = molecular target: Gal(a1-3)Gal(b1-4)Glc
# Outline: as §1
binder,measurement,setting,value
"Nictaba (Nicotiana tabacum), Q94EW1 (protein) MQGQWIAARDLSITWVDNPQYWTWKTVDPNIEVAELRRVAWLDIYGKIETKNLIRKTSYAVYLVFKLTDNPRELERATASLRFVNEVAEGAGIEGTTVFISKKKKLPGELGRFPHLRSDGWLEIKLGEFFNNLGEDGEVEMRLMEINDKTWKSGIIVKGFDIRPN",glycan array binding signal (z-score),[1],-0.072
same,glycan array binding signal (z-score),[2],-0.278
same,glycan array binding signal (z-score),[3],-0.313
same,glycan array binding signal (z-score),[4],-0.281
same,glycan array binding signal (z-score),[5],-0.386
same,glycan array binding signal (z-score),[6],-0.389
same,glycan array binding signal (z-score),[7],-0.307
same,glycan array binding signal (z-score),[8],-0.272
same,glycan array binding signal (z-score),[9],-0.259
same,glycan array binding signal (z-score),[10],-0.291
same,glycan array binding signal (z-score),Fuc(a1-3)GlcNAc,-0.277
same,glycan array binding signal (z-score),[11],-0.292
same,glycan array binding signal (z-score),[12],-0.306
same,glycan array binding signal (z-score),[13],-0.388
same,glycan array binding signal (z-score),[14],5.57
same,glycan array binding signal (z-score),[15],0.122
same,glycan array binding signal (z-score),[16],-0.266
same,glycan array binding signal (z-score),[17],-0.383
same,glycan array binding signal (z-score),[18],-0.388
same,glycan array binding signal (z-score),[19],-0.274
same,glycan array binding signal (z-score),[20],-0.209
same,glycan array binding signal (z-score),[21],-0.282
same,glycan array binding signal (z-score),[22],-0.18
same,glycan array binding signal (z-score),[23],-0.286
same,glycan array binding signal (z-score),[24],-0.295
same,glycan array binding signal (z-score),[25],-0.274
same,glycan array binding signal (z-score),[26],-0.241
same,glycan array binding signal (z-score),[27],-0.134
same,glycan array binding signal (z-score),[28],-0.277
same,glycan array binding signal (z-score),[29],-0.214
same,glycan array binding signal (z-score),[30],-0.318
same,glycan array binding signal (z-score),[31],-0.302
same,glycan array binding signal (z-score),[32],-0.39
same,glycan array binding signal (z-score),Fuc(a1-4)GlcNAc,-0.318
same,glycan array binding signal (z-score),Fuc(b1-3)GlcNAc,-0.303
same,glycan array binding signal (z-score),Gal(a1-2)Gal,-0.289
same,glycan array binding signal (z-score),Gal(a1-3)Gal,-0.285
same,glycan array binding signal (z-score),Gal(a1-3)Gal(b1-3)Glc,-0.27
same,glycan array binding signal (z-score),Gal(a1-3)Gal(b1-3)GlcNAc,-0.268
same,glycan array binding signal (z-score),[33],-0.388
same,glycan array binding signal (z-score),[34],-0.148
same,glycan array binding signal (z-score),[35],-0.24
same,glycan array binding signal (z-score),[36],-0.388
same,glycan array binding signal (z-score),[37],-0.111
same,glycan array binding signal (z-score),Gal(a1-3)Gal(b1-4)Glc,-0.323
